Test results as given in the supplement of paper PMC4967469.

Legend:
Assay in all cases: Viability of human cancer cell lines after 72 h of drug (GDSC screen)
[1] = compound: Cc1cc([N+](=O)[O-])ccc1NS(=O)(=O)c1cc(Cl)ccc1Cl [FH535]; conditions: top dose 32 µM; top dose inferred
Experimental: (§1)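 Human cancer cell lines in 384-well plates, medium with 10% serum, drug for 72 h over a 256-fold dose range (nine 2-fold or five 4-fold steps up to the top dose). Adherent lines were fixed and stained with the nucleic acid dye Syto60, suspension lines read with resazurin; signal relative to control wells, capped at 0 and 100%. One two-parameter sigmoid per drug and line, fitted in a mixed model over all curves with the slope shared within a line.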

[2] = compound: COc1cc(N2CCN(C)CC2)ccc1Nc1nc(N)c(C(=O)c2c(Cl)cccc2Cl)s1 [XMD14-99]; conditions: top dose 10.24 µM; top dose inferred
Experimental: as §1

[3] = compound: O=C(NC1CCNCC1)c1n[nH]cc1NC(=O)c1c(Cl)cccc1Cl [AT-7519]; conditions: top dose 10.24 µM; top dose inferred
Experimental: as §1

| Cell Line | AUC [1] | IC50 [1] | AUC [2] | IC50 [2] | AUC [3] | IC50 [3] |
| --- | --- | --- | --- | --- | --- | --- |
| EFM-192A (breast, adherent) | 0.264 | 0.389 µM | 0.981 | > 10.2 µM | 0.865 | > 10.2 µM |
| EFO-21 (ovary, adherent) | 0.722 | 11.4 µM | 0.973 | > 10.2 µM | 0.558 | 0.985 µM |
| EFO-27 (ovary, adherent) | 0.626 | 4.87 µM | 0.976 | > 10.2 µM | 0.703 | 2.78 µM |
| EGI-1 (biliary tract, adherent) | 0.744 | 12.6 µM | 0.977 | > 10.2 µM | 0.644 | 1.81 µM |
| EN (endometrium, adherent) | 0.556 | 2.97 µM | 0.974 | > 10.2 µM | 0.713 | 3.04 µM |
| EPLC-272H (lung squamous cell carcinoma, adherent) | 0.809 | 19.4 µM | 0.983 | > 10.2 µM | 0.333 | 0.205 µM |
| ESS-1 (endometrium, adherent) | 0.668 | 5.56 µM | 0.985 | > 10.2 µM | 0.861 | 7.29 µM |
| EW-7 (Ewing sarcoma, semi-adherent) | 0.777 | 11.3 µM | 0.907 | > 10.2 µM | 0.449 | 0.473 µM |
| FADU (head and neck, adherent) | 0.541 | 2.58 µM | 0.988 | > 10.2 µM | 0.818 | 5.51 µM |
| FTC-133 (thyroid, adherent) | 0.648 | 5.38 µM | 0.979 | > 10.2 µM | 0.986 | > 10.2 µM |
| FU97 (stomach, adherent) | 0.412 | 1.14 µM | 0.976 | > 10.2 µM | 0.823 | 6.29 µM |
| FU-OV-1 (ovary, adherent) | 0.694 | 8.4 µM | 0.966 | > 10.2 µM | 0.736 | 3.82 µM |
| G-292 Clone A141B1 (osteosarcoma, adherent) | 0.798 | 27.6 µM | 0.948 | > 10.2 µM | 0.924 | > 10.2 µM |
| G-361 (melanoma, adherent) | 0.494 | 1.93 µM | 0.953 | > 10.2 µM | 0.831 | 6.11 µM |
| G-401 (kidney, adherent) | 0.399 | 1.02 µM | 0.918 | > 10.2 µM | 0.65 | 1.75 µM |
| G-402 (soft tissue, adherent) | 0.625 | 4.98 µM | 0.972 | > 10.2 µM | 0.454 | 0.459 µM |
| G-MEL (melanoma, adherent) | 0.869 | 28.8 µM | 0.965 | > 10.2 µM | 0.695 | 2.23 µM |
| GAMG (glioma, adherent) | 0.661 | 5.74 µM | 0.984 | > 10.2 µM | 0.606 | 1.27 µM |
| GCT (soft tissue, adherent) | 0.587 | 3.4 µM | 0.989 | > 10.2 µM | 0.79 | 4.22 µM |
| GMS-10 (glioma, adherent) | 0.805 | 16 µM | 0.986 | > 10.2 µM | 0.772 | 3.92 µM |

| Cell Line | AUC [1] | IC50 [1] | AUC [2] | IC50 [2] | AUC [3] | IC50 [3] |
| --- | --- | --- | --- | --- | --- | --- |
| GP5d (large intestine, adherent) | 0.385 | 1 µM | 0.965 | > 10.2 µM | 0.697 | 2.13 µM |
| H4 (glioma, adherent) | 0.556 | 2.84 µM | 0.985 | > 10.2 µM | 0.877 | 10.1 µM |
| H290 (mesothelioma, adherent) | 0.727 | 8.28 µM | 0.988 | > 10.2 µM | 0.88 | 9.07 µM |
| H513 (mesothelioma, semi-adherent) | 0.433 | 1.26 µM | 0.979 | > 10.2 µM | 0.938 | > 10.2 µM |
| H2369 (mesothelioma, adherent) | 0.53 | 2.42 µM | 0.986 | > 10.2 µM | 0.819 | 6.08 µM |
| H2373 (mesothelioma, adherent) | 0.827 | 26.7 µM | 0.983 | > 10.2 µM | 0.983 | > 10.2 µM |
| H2461 (mesothelioma, adherent) | 0.612 | 4.41 µM | 0.983 | > 10.2 µM | 0.882 | > 10.2 µM |
| H2591 (mesothelioma, adherent) | 0.608 | 4.35 µM | 0.982 | > 10.2 µM | 0.875 | > 10.2 µM |
| H2595 (mesothelioma, adherent) | 0.863 | > 32 µM | 0.979 | > 10.2 µM | 0.781 | 6.12 µM |
| H2722 (mesothelioma, adherent) | 0.729 | 10.3 µM | 0.977 | > 10.2 µM | 0.958 | > 10.2 µM |
| H2731 (mesothelioma, adherent) | 0.662 | 6.03 µM | 0.954 | > 10.2 µM | 0.984 | > 10.2 µM |
| H2795 (mesothelioma, adherent) | 0.43 | 1.29 µM | 0.961 | > 10.2 µM | 0.787 | 4.38 µM |
| H2803 (mesothelioma, adherent) | 0.766 | 13.7 µM | 0.965 | > 10.2 µM | 0.969 | > 10.2 µM |
| H2804 (mesothelioma, adherent) | 0.74 | 10.5 µM | 0.968 | > 10.2 µM | 0.842 | 8.25 µM |
| H2818 (mesothelioma, adherent) | 0.929 | > 32 µM | 0.97 | > 10.2 µM | 0.956 | > 10.2 µM |
| H2869 (mesothelioma, adherent) | 0.843 | 31.3 µM | 0.955 | > 10.2 µM | 0.721 | 3.19 µM |
| H3118 (head and neck, adherent) | 0.62 | 4.42 µM | 0.982 | > 10.2 µM | 0.414 | 0.365 µM |
| H3255 (lung adenocarcinoma, adherent) | 0.715 | 9.27 µM | 0.982 | > 10.2 µM | 0.856 | > 10.2 µM |
| HARA (lung squamous cell carcinoma, adherent) | 0.657 | 5.9 µM | 0.967 | > 10.2 µM | 0.415 | 0.36 µM |
| HCC38 (breast, adherent) | 0.745 | 10.7 µM | 0.986 | > 10.2 µM | 0.774 | 4.36 µM |

| Cell Line | AUC [1] | IC50 [1] | AUC [2] | IC50 [2] | AUC [3] | IC50 [3] |
| --- | --- | --- | --- | --- | --- | --- |
| HCC70 (breast, adherent) | 0.659 | 5.48 µM | 0.985 | > 10.2 µM | 0.356 | 0.257 µM |
| HCC1143 (breast, adherent) | 0.457 | 1.46 µM | 0.98 | > 10.2 µM | 0.687 | 2.65 µM |
| HCC1395 (breast, adherent) | 0.318 | 0.555 µM | 0.983 | > 10.2 µM | 0.922 | > 10.2 µM |
| HCC1419 (breast, adherent) | 0.603 | 4.32 µM | 0.98 | > 10.2 µM | 0.793 | 7.08 µM |
| HCC1428 (breast, adherent) | 0.647 | 5.33 µM | 0.988 | > 10.2 µM | 0.956 | > 10.2 µM |
| HCC1500 (breast, adherent) | 0.427 | 1.26 µM | 0.988 | > 10.2 µM | 0.491 | 0.602 µM |
| HCC1569 (breast, adherent) | 0.599 | 4.08 µM | 0.945 | > 10.2 µM | 0.599 | 1.31 µM |
| HCC1806 (breast, adherent) | 0.841 | 19.6 µM | 0.977 | > 10.2 µM | 0.567 | 0.959 µM |
| HCC1937 (breast, adherent) | 0.695 | 7.72 µM | 0.985 | > 10.2 µM | 0.759 | 4.08 µM |
| HCC1954 (breast, adherent) | 0.513 | 2.18 µM | 0.946 | > 10.2 µM | 0.377 | 0.276 µM |
| HCC2998 (large intestine, adherent) | 0.571 | 3.11 µM | 0.988 | > 10.2 µM | 0.547 | 0.858 µM |
| HCC-15 (lung squamous cell carcinoma, adherent) | 0.666 | 6.63 µM | 0.975 | > 10.2 µM | 0.843 | > 10.2 µM |
| HCC-44 (lung adenocarcinoma, adherent) | 0.594 | 3.6 µM | 0.98 | > 10.2 µM | 0.387 | 0.316 µM |
| HCC-56 (large intestine, adherent) | 0.622 | 4.37 µM | 0.972 | > 10.2 µM | 0.77 | 3.99 µM |
| HCC-78 (lung adenocarcinoma, adherent) | 0.764 | 13.6 µM | 0.967 | > 10.2 µM | 0.428 | 0.393 µM |
| HCC-827 (lung adenocarcinoma, adherent) | 0.55 | 2.79 µM | 0.982 | > 10.2 µM | 0.726 | 3.14 µM |
| HCT-15 (large intestine, adherent) | 0.674 | 6.33 µM | 0.982 | > 10.2 µM | 0.984 | > 10.2 µM |
| HDQ-P1 (breast, adherent) | 0.717 | 9.37 µM | 0.985 | > 10.2 µM | 0.904 | > 10.2 µM |
| HEC-1 (endometrium, adherent) | 0.715 | 7.9 µM | 0.988 | > 10.2 µM | 0.954 | > 10.2 µM |

IC50 is the fitted dose that halves viability relative to control wells, and lower means more sensitive; where the fit passes the top or lowest dose, that dose stands as a limit. AUC, from the same fit, is the share of area under the viability curve across the 256-fold dose range; values near 1 show little effect. A top dose marked as inferred comes from the curve model; the source does not state it.
